According to the supplement of paper PMC8728848:
This is one part of the list.

Legend:
Experiment in all cases: glycan array binding signal (z-score within array); higher = stronger binding
Settings in all cases: glycan notation: IUPAC condensed, linker removed
GalNAc(b1-3)Gal = target: GalNAc(b1-3)Gal
Procedure, shortened: (§1)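 Glycan array data were curated from 3228 arrays in the Consortium for Functional Glycomics database and kept only where the protein sequence was available. Glycan names were converted to IUPAC-condensed notation, and columns mapping to the same glycan were averaged. The binding signal is a within-array Z-score, averaged across arrays of the same protein sequence at different concentrations or buffers and across linkers. Negative Z-scores can be read as non-binding.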

[1] = target: GalNAc(b1-3)Gal(a1-4)Gal(b1-4)GlcNAc
Procedure, shortened: as §1

GalNAc(b1-3)GalNAc = target: GalNAc(b1-3)GalNAc
Procedure, shortened: as §1

GalNAc(b1-4)GlcNAc = target: GalNAc(b1-4)GlcNAc
Procedure, shortened: as §1

Glc(a1-4)Glc = target: Glc(a1-4)Glc
Procedure, shortened: as §1

Glc(a1-6)Glc(a1-6)Glc = target: Glc(a1-6)Glc(a1-6)Glc
Procedure, shortened: as §1

Glc(b1-4)Glc = target: Glc(b1-4)Glc
Procedure, shortened: as §1

Glc(b1-6)Glc = target: Glc(b1-6)Glc
Procedure, shortened: as §1

GlcA(b1-3)Gal = target: GlcA(b1-3)Gal
Procedure, shortened: as §1

GlcA(b1-3)GlcNAc = target: GlcA(b1-3)GlcNAc
Procedure, shortened: as §1

GlcA(b1-6)Gal = target: GlcA(b1-6)Gal
Procedure, shortened: as §1

[2] = target: GlcNAc(a1-3)Gal(b1-4)GlcNAc
Procedure, shortened: as §1

[3] = target: GlcNAc(a1-6)Gal(b1-4)GlcNAc
Procedure, shortened: as §1

[4] = target: GlcNAc(b1-2)Gal(b1-3)GalNAc
Procedure, shortened: as §1

[5] = target: GlcNAc(b1-2)Man(a1-3)[GlcNAc(b1-2)Man(a1-6)]Man(b1-4)GlcNAc(b1-4)GlcNAc
Procedure, shortened: as §1

GlcNAc(b1-3)Gal = target: GlcNAc(b1-3)Gal
Procedure, shortened: as §1

[6] = target: GlcNAc(b1-3)Gal(b1-3)GalNAc
Procedure, shortened: as §1

GlcNAc(b1-3)Gal(b1-4)Glc = target: GlcNAc(b1-3)Gal(b1-4)Glc
Procedure, shortened: as §1

[7] = target: GlcNAc(b1-3)Gal(b1-4)GlcNAc
Procedure, shortened: as §1

[8] = target: GlcNAc(b1-3)Gal(b1-4)GlcNAc(b1-3)Gal(b1-4)GlcNAc
Procedure, shortened: as §1

GlcNAc(b1-3)GalNAc = target: GlcNAc(b1-3)GalNAc
Procedure, shortened: as §1

GlcNAc(b1-3)Man = target: GlcNAc(b1-3)Man
Procedure, shortened: as §1

[9] = target: GlcNAc(b1-3)[GlcNAc(b1-4)][GlcNAc(b1-6)]GlcNAc
Procedure, shortened: as §1

[10] = target: GlcNAc(b1-3)[GlcNAc(b1-6)]Gal(b1-4)GlcNAc
Procedure, shortened: as §1

[11] = target: GlcNAc(b1-3)[GlcNAc(b1-6)]GalNAc
Procedure, shortened: as §1

[12] = target: GlcNAc(b1-3)[GlcNAc(b1-6)]GlcNAc(b1-4)GlcNAc
Procedure, shortened: as §1

[13] = target: GlcNAc(b1-4)Gal(b1-4)GlcNAc
Procedure, shortened: as §1

GlcNAc(b1-4)GlcNAc = target: GlcNAc(b1-4)GlcNAc
Procedure, shortened: as §1

[14] = target: GlcNAc(b1-4)GlcNAc(b1-4)GlcNAc
Procedure, shortened: as §1

[15] = target: GlcNAc(b1-4)GlcNAc(b1-4)GlcNAc(b1-4)GlcNAc(b1-4)GlcNAc
Procedure, shortened: as §1

B1: P-Selectin (Mus musculus), Q01102 (protein)
chain: MAGCPKGSWTPRLRSVILGGAQLIWFSALISELVNQKEVAAWTYNYSTKAYSWNNSRVFCRRHFTDLVAIQNKNEIAHLNDVIPFFNSYYWIGIRKINNKWTWVGTNKTLTEEAENWADNEPNNKKNNQDCVEIYIKSNSAPGKWNDEPCFKRKRALCYTASCQDMSCSNQGECIETIGSYTCSCYPGFYGPECEYVKECGKVNIPQHVLMNCSHPLGEFSFNSQCTFSCAEGYELDGPGELQCLASGIWTNNPPKCDAVQCQSLEAPPHGTMACMHPIAAFAYDSSCKFECQPGYRARGSNTLHCTGSGQWSEPLPTCEAIACEPPEIPIHGSMDCVPSTGTFGYNSSCTFLCAEGFVLKGNDAIQCADSGQWTAPAPFCEALQCPEFPVPSKAQVNCSDPFGTLTYQSVCSFSCDEGSLLVGASVIRCLATGHWNGAPPECQAVSCAPMLSPENGSMTCVQPLGNSTYKSTCQFMCDEGFYLSGPERLDCSPSGHWTGTPPTCEAIKCPGIFAPEQGNLDCSHVHGEFGVGSICHFSCNEDFELLGSENVECTVSGRWSAPPPTCKGITSLPAPAVRCPALTTPGQGTMSCQHHLGSFGPNTTCYFGCKTGFTLRGANSLRCRASGQWTAVTPMCRAVKCSELHMDTAVAMNCSNPWGNFSYGSTCTFQCPEGQSLNGSVRATCREDGHWSDAMPTCQAGTLTIQEALTYLGGAVASTTGLAVGGTLLALLRKRLRKKDDGKCPLNPHSHLGTYGVFTNAAYDPTP
glycan array binding signal (z-score) (GalNAc(b1-3)Gal): -0.351
glycan array binding signal (z-score) [1]: -0.42
glycan array binding signal (z-score) (GalNAc(b1-3)GalNAc): -0.507
glycan array binding signal (z-score) (GalNAc(b1-4)GlcNAc): -0.467
glycan array binding signal (z-score) (Glc(a1-4)Glc): -0.562
glycan array binding signal (z-score) (Glc(a1-6)Glc(a1-6)Glc): -0.486
glycan array binding signal (z-score) (Glc(b1-4)Glc): -0.122
glycan array binding signal (z-score) (Glc(b1-6)Glc): -0.498
glycan array binding signal (z-score) (GlcA(b1-3)Gal): -0.228
glycan array binding signal (z-score) (GlcA(b1-3)GlcNAc): -0.204
glycan array binding signal (z-score) (GlcA(b1-6)Gal): 0.05
glycan array binding signal (z-score) [2]: -0.599
glycan array binding signal (z-score) [3]: -0.56
glycan array binding signal (z-score) [4]: -0.618
glycan array binding signal (z-score) [5]: -0.263
glycan array binding signal (z-score) (GlcNAc(b1-3)Gal): -0.636
glycan array binding signal (z-score) [6]: -0.589
glycan array binding signal (z-score) (GlcNAc(b1-3)Gal(b1-4)Glc): -0.616
glycan array binding signal (z-score) [7]: 0.049
glycan array binding signal (z-score) [8]: -0.268
glycan array binding signal (z-score) (GlcNAc(b1-3)GalNAc): -0.559
glycan array binding signal (z-score) (GlcNAc(b1-3)Man): -0.32
glycan array binding signal (z-score) [9]: -0.393
glycan array binding signal (z-score) [10]: -0.63
glycan array binding signal (z-score) [11]: -0.369
glycan array binding signal (z-score) [12]: -0.719
glycan array binding signal (z-score) [13]: -0.478
glycan array binding signal (z-score) (GlcNAc(b1-4)GlcNAc): -0.315
glycan array binding signal (z-score) [14]: -0.278
glycan array binding signal (z-score) [15]: 0.482
